This note sets out measurements from the supplement of paper PMC9446081.

Out of some 39,000 compounds screened, about 220 (0.56%) showed activity. Some of the results follow.
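Further: static incubation at 37 °C against the wild-type strain, values averaged over two biological replicates.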

The test has as its system Escherichia coli K-12 BW25113. The test can be described thus: relative growth (OD600 normalised to plate interquartile mean) (fraction); higher = less growth inhibition, active = 0.2 or less. The note with it: 50 µM; LB; incubation time: overnight (16-24 h).
For the molecule `C[C@@H]1CN([C@@H](C)CO)S(=O)(=O)c2ccc(C#Cc3cccnc3)cc2O[C@H]1CN(C)CC1CCOCC1`, the relative growth was inactive: 1.01. To `O=C(C[C@H]1C[C@H]2c3cc(NS(=O)(=O)c4ccc(F)cc4)ccc3O[C@H]2[C@H](CO)O1)NC1CCCC1` belongs inactive: 0.974.

Turning to `O=C(NCCN1CCOCC1)[C@@H]1c2ccccc2C(=O)N(C2Cc3ccccc3C2)[C@H]1c1ccc(CO)cc1`, the relative growth was inactive: 0.985. With `C[C@H](CO)N1C[C@H](C)[C@@H](CN(C)Cc2ccc(Oc3ccccc3)cc2)Oc2ccc(NS(=O)(=O)c3ccccc3)cc2CC1=O`, the relative growth is inactive: 0.978.

Take `C[C@H]1CN([C@@H](C)CO)C(=O)c2cc(NC(=O)Nc3cccc4ccccc34)ccc2O[C@H]1CN(C)C(=O)Nc1ccc(C(F)(F)F)cc1`: the relative growth is inactive: 0.997.

Take `COc1ccc(COCCN2C[C@@H](C)[C@H](CN(C)S(=O)(=O)c3ccc(F)cc3)OCCCC[C@H](C)Oc3ccc(NC(=O)Nc4ccccc4)cc3C2=O)cc1`: the relative growth was inactive: 1.01. As to `Cc1noc(C)c1NC(=O)Nc1cccc2c1O[C@@H](CN(C)Cc1ccc(Oc3ccccc3)cc1)[C@@H](C)CN([C@H](C)CO)C2=O`, the relative growth is inactive: 0.997. Take `COc1ccccc1-c1ccc2c(c1)O[C@@H](CN(C)S(=O)(=O)c1ccccc1)[C@@H](C)CN([C@H](C)CO)S2(=O)=O`: the relative growth was inactive: 1.04.

In the case of `CCc1nc2c(OCC(=O)c3ccc(Cl)cc3Cl)cccn2c1N(C)C(=O)COc1ccccc1`, the relative growth is inactive: 1.02. The result for `Nc1ncnc2c1ncn2C1OC(COP(=O)(O)OP(=O)([O-])OP(=O)([O-])O)C(O)C1O.[Na+].[Na+]` (stereo not given) reads inactive: 1.04; that for `C[C@H]1CCCCO[C@@H](CN(C)Cc2ccncc2)[C@@H](C)CN([C@@H](C)CO)C(=O)c2cc(NC(=O)Nc3ccccc3)ccc2O1`, inactive: 1.01; that for `C[C@@H]1CN([C@H](C)CO)C(=O)Cc2cc(NS(=O)(=O)c3cccs3)ccc2O[C@H]1CN(C)Cc1ccc(-c2ccccc2)cc1`, inactive: 0.992. To `CC1(C)Cc2c(-c3ccccc3)c(-c3ccc(Cl)cc3)c(CC(=O)O)n2C1` belongs inactive: 1; to `COC(=O)c1cn(C[C@@H](Cc2ccccc2)NC(=O)N[C@H](CO)CCc2oc(C(C)=O)c(C(=O)OC)c2C(=O)OC)nn1`, inactive: 1.01.

`C[C@@H]1CCCCO[C@H](CN(C)C(=O)C2CCCCC2)[C@@H](C)CN([C@@H](C)CO)C(=O)c2cc(NS(=O)(=O)c3cccs3)ccc2O1`: the relative growth is inactive: 0.998.

Regarding `CN(C)C(=O)C[C@H]1CC[C@@H](NC(=O)C2CC2)[C@@H](CO)O1`, the relative growth was inactive: 0.993. Take `O=C(CN1CCOCC1)N[C@H]1CC[C@@H](CCNC(=O)C2CCC2)O[C@@H]1CO`: the relative growth was inactive: 0.984. As for `CC[C@@H](C)C(=O)O[C@H]1[C@@H]2CC3=C4CC(=O)O[C@@H](c5ccoc5)[C@]4(C)CC[C@@H]3[C@@](C)(C2=O)[C@@H](CC(=O)OC)C1(C)C`, the relative growth is inactive: 1.01. The result for `C[C@@H]1CN([C@H](C)CO)C(=O)c2cc(NC(=O)Cc3ccccc3)ccc2O[C@@H]1CN(C)C(=O)Nc1cccc2ccccc12` reads inactive: 0.982; that for `C/C=N/N(C)C=O`, inactive: 1; that for `NC1=CC(=O)c2ccccc2C1=O`, inactive: 0.81. To `COCCOC(=O)N1C(=O)[C@@]2(c3cc(C#Cc4ccc(OC)cc4)ccc31)[C@H](C(N)=O)[C@H]1C(=O)O[C@H](c3ccccc3)[C@H](c3ccccc3)N1[C@@H]2c1ccccc1OCCO` belongs inactive: 1.09; to `O=C(Cc1ccccn1)NCC[C@@H]1CC[C@H](NC(=O)CN2CCOCC2)[C@@H](CO)O1`, inactive: 1.01. The result for `COc1ccc2c3c(n(c2c1)C)[C@H](CO)N(C[C@]13CN(C1)C(=O)C1CCOCC1)C(=O)C1CCOCC1` reads inactive: 0.906; that for `Cc1noc(C)c1S(=O)(=O)Nc1ccc2c(c1)C(=O)N([C@H](C)CO)C[C@H](C)[C@H](CN(C)S(=O)(=O)c1ccccc1)O2`, inactive: 0.99; that for `O=C(Cc1ccncc1)NCC[C@@H]1CC[C@@H](NC(=O)C2CCOCC2)[C@H](CO)O1`, inactive: 1.01. `Cc1ccc(S(=O)(=O)N(C)C[C@@H]2Oc3ccc(NS(C)(=O)=O)cc3C(=O)N([C@@H](C)CO)C[C@H]2C)cc1`: the relative growth was inactive: 0.982. For the molecule `Cc1ccc(S[C@H](C)C(=O)c2ccc(C)c(Cl)c2)cc1`, the relative growth is inactive: 0.959. `C[C@@H]1CCCCO[C@@H](CN(C)C(=O)Cc2ccccc2)[C@@H](C)CN([C@H](C)CO)C(=O)c2cc(NC(=O)CCCCCC(=O)Nc3ccccc3N)ccc2O1`: the relative growth was inactive: 0.938. As to `Cc1noc(C)c1S(=O)(=O)Nc1ccc2c(c1)C(=O)N([C@H](C)CO)C[C@H](C)[C@@H](CN(C)C)OCCCC[C@@H](C)O2`, the relative growth is inactive: 0.99. The result for `Cc1noc(C)c1S(=O)(=O)Nc1ccc2c(c1)CC(=O)N([C@@H](C)CO)C[C@H](C)[C@H](CN(C)Cc1ccc(-c3ccccc3)cc1)O2` reads inactive: 1; that for `C[C@@H]1CN([C@@H](C)CO)C(=O)c2c(c3ccccc3n2C)-c2ccccc2CO[C@H]1CN(C)Cc1ccc(Oc2ccccc2)cc1`, inactive: 1.01; that for `Cc1noc(C)c1NC(=O)N(C)C[C@H]1Oc2c(NS(C)(=O)=O)cccc2C(=O)N([C@@H](C)CO)C[C@@H]1C`, inactive: 1.01.

As for `COCCCN1C(=O)[C@@]2(Cc3ccccc31)c1ccccc1C(=O)N(Cc1ccccc1)[C@H]2c1ccc(CO)cc1`, the relative growth was inactive: 1. As for `COc1ccc(NC(=O)Nc2ccc3c(c2)C(=O)N([C@@H](C)CO)C[C@@H](C)[C@H](CN(C)Cc2ccc(Cl)c(Cl)c2)O3)cc1`, the relative growth was inactive: 0.987. `C[C@H](CO)N1C[C@H](C)[C@H](CN(C)S(=O)(=O)c2cn(C)cn2)Oc2c(NC(=O)C3CC3)cccc2C1=O`: the relative growth was inactive: 0.94.

Take `C[C@H]1CCCCO[C@@H](CN(C)C(=O)Nc2ccc3c(c2)OCO3)[C@@H](C)CN([C@@H](C)CO)C(=O)c2cc(NC(=O)Nc3ccccc3)ccc2O1`: the relative growth was inactive: 1.02.

Take `C[C@@H]1CN([C@H](C)CO)C(=O)c2cccc(NC(=O)Nc3ccc(C(F)(F)F)cc3)c2O[C@@H]1CN(C)Cc1ccc(C(=O)O)cc1`: the relative growth is inactive: 0.967. Take `C[C@@H]1CN([C@@H](C)CO)C(=O)c2cc(NC(=O)Nc3ccc(C(F)(F)F)cc3)ccc2O[C@@H](C)CCCCO[C@H]1CN(C)C(=O)CCCN(C)C`: the relative growth is inactive: 0.914. To `COc1cccc(CNC(=O)C[C@@H]2C=C[C@@H](NC(=O)C3CCOCC3)[C@H](CO)O2)c1` belongs inactive: 0.987; to `Cc1noc(C)c1NC(=O)Nc1ccc2c(c1)C(=O)N([C@@H](C)CO)C[C@H](C)[C@H](CN(C)Cc1ccc3c(c1)OCO3)OCCCC[C@@H](C)O2`, inactive: 0.988.

In the case of `COc1ccc([Si](C)(C)[C@H]2[C@H](CCn3cc(CCO)nn3)O[C@@]3(C(=O)N(Cc4cccc(N5C(=O)c6cccc7cccc5c67)c4)c4ccccc43)[C@@H]2C)cc1`, the relative growth was inactive: 1. To `NCCN1C(=O)c2[nH]nc(-c3ccccc3)c2[C@H]1c1ccccc1` belongs inactive: 0.893. `C[C@@H]1CN([C@H](C)CO)C(=O)c2cccc(NC(=O)Nc3ccc(F)cc3)c2O[C@H]1CN(C)Cc1ccc(C(F)(F)F)cc1`: the relative growth was inactive: 0.94. The result for `C[C@@H]1CN([C@H](C)CO)C(=O)c2cc(NC(=O)c3ccccc3)ccc2O[C@@H](C)CCCCO[C@H]1CN(C)C(=O)CCC(F)(F)F` reads inactive: 0.998; that for `Cc1ccc(S(=O)(=O)Nc2cccc3c2O[C@@H](CN(C)C(=O)Nc2ccc(C(F)(F)F)cc2)[C@@H](C)CN([C@H](C)CO)C3=O)cc1`, inactive: 0.979; that for `O=C([C@@H]1[C@@H](CO)[C@@H]2Cn3c(cccc3=O)[C@H]1N2CC1CCCC1)N1CCOCC1`, inactive: 1.01. The result for `Cc1ccc(S(=O)(=O)Nc2ccc3c(c2)C(=O)N(C)[C@H]2CC[C@@H](CC(=O)NCCc4ccncc4)O[C@@H]2CO3)cc1` reads inactive: 1.05. With `OCc1cc(O)c2c(O)c3c(O)cccc3c(O[C@@H]3O[C@H](CO)[C@H](O)[C@@H](O)[C@H]3O)c2c1`, the relative growth was inactive: 0.974.

In the case of `CC(C)(C)c1csc(-c2ccc(OC(F)(F)F)cc2)n1`, the relative growth was inactive: 1.04. The result for `NC(=O)NC(=O)C[n+]1ccc(/C=N/O)cc1` reads inactive: 0.938; that for `COCCNC(=O)C[C@@H]1CC[C@H]2[C@@H](COC[C@@H](O)CN2S(=O)(=O)c2ccccc2F)O1`, inactive: 0.995.

On to `C[C@@H]1CN([C@@H](C)CO)C(=O)c2cccc(NS(=O)(=O)c3ccccc3)c2O[C@@H]1CN(C)S(=O)(=O)c1cccs1`, for which the relative growth was inactive: 1.04. As to `COc1ccc(S(=O)(=O)N(C)C[C@H]2OCCCC[C@H](C)Oc3ccc(NC(=O)Nc4cccc5ccccc45)cc3C(=O)N([C@H](C)CO)C[C@H]2C)cc1`, the relative growth was inactive: 1.03. The result for `NCc1cccc2c1OCC2` reads inactive: 0.997. Consider `Cc1noc(C)c1S(=O)(=O)N(C)C[C@@H]1Oc2ccc(NS(=O)(=O)c3ccc(F)cc3)cc2C(=O)N([C@H](C)CO)C[C@@H]1C`, for which the relative growth is inactive: 1.02. The result for `Cc1cc(C(=O)Nc2cccc3c2O[C@H](CN(C)Cc2ccc(C(=O)O)cc2)[C@H](C)CN([C@@H](C)CO)C3=O)n(C)n1` reads inactive: 0.994; that for `COc1cccc2c1C(=O)c1c(O)c3c(c(O)c1C2=O)C[C@](O)(C(=O)CO)C[C@H]3O[C@H]1C[C@@H](N)[C@@H](O)[C@@H](C)O1`, inactive: 0.945. Consider `COc1ccc(S(=O)(=O)N(C)C[C@H]2Oc3ccc(NS(=O)(=O)c4cccs4)cc3CC(=O)N([C@H](C)CO)C[C@H]2C)cc1`, for which the relative growth is inactive: 0.993. To `C[C@H]1CN([C@@H](C)CO)C(=O)c2cc(NC(=O)C3CC3)ccc2O[C@H]1CN(C)Cc1ccc(Oc2ccccc2)cc1` belongs inactive: 1.
